Laboratory results from PMC3597591.
Changes are numbered by the printed parent chain. In names and notes the source's numbering stands. These are yes or no findings as the source states them, for the method shown. For some assays here: In cells and extracts the contact can be indirect. Some entries that bind do so weakly or less than the wild type. For some assays here: Where a sequence is shown, tags or fusion partners need not be part of it. One block for each molecule: values may come before it.

The chains behind the UniProt entries cited, without tags or fusion partners.
UniProt P62258: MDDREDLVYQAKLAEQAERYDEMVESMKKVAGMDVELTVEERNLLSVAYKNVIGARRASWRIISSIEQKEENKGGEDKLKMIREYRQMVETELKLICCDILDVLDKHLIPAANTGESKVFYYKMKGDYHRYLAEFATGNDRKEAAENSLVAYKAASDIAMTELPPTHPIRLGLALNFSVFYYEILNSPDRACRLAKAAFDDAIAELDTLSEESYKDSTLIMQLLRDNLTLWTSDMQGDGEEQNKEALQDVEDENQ
UniProt P62260: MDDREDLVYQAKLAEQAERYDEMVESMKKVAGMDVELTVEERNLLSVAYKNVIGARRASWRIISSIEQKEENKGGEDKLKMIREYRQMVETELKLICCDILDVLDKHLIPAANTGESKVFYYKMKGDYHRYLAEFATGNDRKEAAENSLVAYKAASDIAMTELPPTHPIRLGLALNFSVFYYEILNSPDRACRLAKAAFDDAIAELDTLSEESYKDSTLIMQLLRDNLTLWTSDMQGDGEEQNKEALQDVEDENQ

Legend:
[1] = biological target: T1, GFP-Bsn28^S2845A (rat) (UniProt O88778); test: co-IP; HEK293T cells expressing GFP-Bsn28 or its S2845A mutant; MicroMACS anti-GFP MicroBeads; 10 mM Tris-HCl pH 8.0, 150 mM NaCl, 1% NP-40, 10% glycerol, protease inhibitors and PhosStop; blots with α-pan 14-3-3 and α-14-3-3η
T1 sequence: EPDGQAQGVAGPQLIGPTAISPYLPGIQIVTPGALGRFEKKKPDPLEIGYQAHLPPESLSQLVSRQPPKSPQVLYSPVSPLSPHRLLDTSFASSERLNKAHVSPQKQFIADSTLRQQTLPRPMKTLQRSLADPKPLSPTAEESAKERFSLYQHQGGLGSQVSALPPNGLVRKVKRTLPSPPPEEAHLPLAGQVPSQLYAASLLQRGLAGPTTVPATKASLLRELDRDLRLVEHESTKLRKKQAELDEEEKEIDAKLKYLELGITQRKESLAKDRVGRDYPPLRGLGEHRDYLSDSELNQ

[2] = biological target: T2, GFP-tagged Bassoon fragment Bsn28 (GFP-Bsn28) (rat) (UniProt O88778); test: as above
T2 sequence (chain, phosphoserine at 2845 (α-pS2845 Bsn recognized GFP-Bsn28 in HEK293T lysates)): T1 sequence with A131S

[3] = biological target: T3, mitochondria-targeted Bassoon fragment (mitoGFP-Bsn28) (rat) (UniProt O88778); test: mito-targeting assay (recruitment to mitochondria, fluorescence microscopy); COS-7 cells co-transfected with mitochondria-targeted GFP constructs and mRFP-14-3-3 isoforms, fixed after 24 h
T3 sequence: T1 sequence with A131S

[4] = biological target: T4, Bassoon fragment Bsn28 (aa 2715-3013 of rat Bassoon), yeast two-hybrid bait (rat) (UniProt O88778); test: two-hybrid; Matchmaker Two-Hybrid System 3; screen of a pACT2 rat brain Matchmaker cDNA library (prey) with Bsn28 as bait
T4 sequence: T1 sequence with A131S

[5] = biological target: T5, mitoGFP-Bsn28^S2845A (rat) (UniProt O88778); test: mito-targeting assay (recruitment to mitochondria, fluorescence microscopy); COS-7 cells co-transfected with mitochondria-targeted GFP constructs and mRFP-14-3-3 isoforms, fixed after 24 h
T5 sequence: T1 sequence

[6] = biological target: T6, GST-tagged 14-3-3η (GST-14-3-3η) (rat) (UniProt P68511); test: pull-down; 25 µg purified GST or 50 µg purified GST-14-3-3η coupled to glutathione sepharose, incubated with HEK293T cell lysates overnight at 4°C; 10 mM HEPES pH 7.5, 150 mM NaCl, 0.5% Triton-X-100, protease inhibitors and PhosStop; eluted with 10 mM glutathione; blot with α-GFP; only the target purified
T6 sequence: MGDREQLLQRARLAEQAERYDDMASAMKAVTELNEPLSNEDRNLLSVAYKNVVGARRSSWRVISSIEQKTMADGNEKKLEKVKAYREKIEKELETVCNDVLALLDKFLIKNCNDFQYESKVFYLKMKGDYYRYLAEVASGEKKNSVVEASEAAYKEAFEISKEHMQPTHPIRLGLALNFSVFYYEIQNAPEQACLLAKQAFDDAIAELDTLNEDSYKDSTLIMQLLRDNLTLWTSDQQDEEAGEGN

binding [1]: no binding
binding [2]: binds
Molecule: endogenous 14-3-3ε of HEK293T cells (from UniProt P62258 1-255)

binding [3]: binds
Molecule: mRFP-14-3-3ε (from UniProt P62260 1-255)

binding [3]: binds
B1: mRFP-14-3-3β (protein, UniProt P35213 1-246)
chain: MTMDKSELVQKAKLAEQAERYDDMAAAMKAVTEQGHELSNEERNLLSVAYKNVVGARRSSWRVISSIEQKTERNEKKQQMGKEYREKIEAELQDICSDVLELLDKYLILNATHAESKVFYLKMKGDYFRYLSEVASGDNKQTTVSNSQQAYQEAFEISKKEMQPTHPIRLGLALNFSVFYYEILNSPEKACSLAKTAFDEAIAELDTLNEESYKDSTLIMQLLRDNLTLWTSENQGDEGDAGEGEN

binding [3]: binds
B2: mRFP-14-3-3γ (protein, UniProt P61983 1-247)
chain: MVDREQLVQKARLAEQAERYDDMAAAMKNVTELNEPLSNEERNLLSVAYKNVVGARRSSWRVISSIEQKTSADGNEKKIEMVRAYREKIEKELEAVCQDVLSLLDNYLIKNCSETQYESKVFYLKMKGDYYRYLAEVATGEKRATVVESSEKAYSEAHEISKEHMQPTHPIRLGLALNYSVFYYEIQNAPEQACHLAKTAFDDAIAELDTLNEDSYKDSTLIMQLLRDNLTLWTSDQQDDDGGEGNN

binding [4]: binds
B3: 14-3-3η, clone from the pACT2 rat brain Matchmaker cDNA library (protein, UniProt P68511 1-246)
chain: T6 sequence

binding [5]: no binding
binding [3]: binds
B4: mRFP fusion protein of 14-3-3η (mRFP-14-3-3η) (protein, UniProt P68511 1-246)
chain: T6 sequence

binding [1]: no binding
binding [2]: binds
B5: endogenous 14-3-3η of HEK293T cells (protein, UniProt Q04917 1-246)
chain: T6 sequence with A102S, H164Q

binding [6]: binds
B6: GFP-tagged Bassoon fragment Bsn28 (GFP-Bsn28) (domain or fragment, UniProt O88778 2715-3013)
chain: T1 sequence with A131S
modifications: phosphoserine at 2845 (α-pS2845 Bsn recognized GFP-Bsn28 in HEK293T lysates)

B7: GFP-Bsn28 S2845E (domain or fragment, UniProt O88778 2715-3013)
chain: T1 sequence with A131E
binding [6]: no binding (tested: 50 µg purified GST-14-3-3η on beads)

B8: GFP-Bsn28 S2845D (domain or fragment, UniProt O88778 2715-3013)
chain: T1 sequence with A131D
binding [6]: no binding (tested: 50 µg purified GST-14-3-3η on beads)

B9: GFP-Bsn28^S2845A (domain or fragment, UniProt O88778 2715-3013)
chain: T1 sequence
binding [6]: no binding (tested: 50 µg purified GST-14-3-3η on beads)
